Measurements taken from PubChem BioAssay AID624296 (National Center for Advancing Translational Sciences (NCATS), 2012).
In all, about 350,000 compounds went through this assay and about 9,900 (2.8%) were called active. Inconclusive results, whose numbers are uncertain, are shown with a selection of clear calls. Calls follow the shape of the dose curve; as a rule, active = well fitted activation curve with a large enough effect; inconclusive = small, poorly fitted or top-dose-only effect; inactive = no such curve, though single readings can be large or run the other way. No potency is given beside an inconclusive call; the fits are too rough.

Assay: A quantitative high throughput screen for small molecules that induce DNA re-replication in MCF 10a normal breast cells. Also: nearly all actives have a fitted effect of over 50% in size.
Settings: MCF 10A DNA re-replication, Hoechst nuclear intensity, 48 h; series mostly up to 46.1 µM
Potency is read from the fitted curve at half-maximal effect; tags tell the direction and shape of the fitted curve.

Row | Structure (SMILES) | Potency
1 | CC(C)(C)NC(=O)CSc1nc2ccc(NC(=O)CSc3nnc(N)s3)cc2s1 | inconclusive [activator, partial curve, poor fit]
2 | Nc1nc(Nc2cccc(Cl)c2)nc(NCc2ccco2)c1[N+](=O)[O-] | inconclusive [activator, single point]
3 | Cc1ccc(C)c(C(=O)NCCN(C)C)c1 | inconclusive [activator, single point]
4 | Fc1cc(F)cc(Nc2nc(Cl)nc(NC3CCCC3)n2)c1 | inconclusive [activator, single point]
5 | Cc1nc2oc(C(=O)c3ccc(Br)cc3)c(N)c2c2c1COC(C)(C)C2 | inconclusive [activator, single point]
6 | O=C(CSc1nccc2ccccc12)N1CCN(Cc2ccc3c(c2)OCO3)CC1 | inactive
7 | Cc1ccc(-c2nc(N3CCOCC3)sc2C(=O)N2CCCCC2)cc1 | inactive
8 | Cc1noc(NS(=O)(=O)c2ccc(N/C=C/C(=O)c3cccnc3)cc2)c1C | inconclusive [activator, single point]
9 | COc1ccccc1N1CCN(C(=O)c2oc3cc(C)c(C)cc3c2C)CC1 | inconclusive [activator, single point]
10 | CCCCN(C(=O)c1cc(=O)[nH]c2ccccc12)c1c(N)n(CCC)c(=O)[nH]c1=O | inactive
11 | Cn1ccnc1SCC(=O)N1CCN(S(=O)(=O)c2ccccc2)CC1 | inactive
12 | O=C(Nc1ccccc1N1CCCCC1)c1ccc(OC(F)F)cc1 | active: 13 µM
13 | Cc1cccc(OCCCC(=O)NNC(=O)CCN2CCN(c3ccccc3)CC2)c1 | inactive
14 | O=C(NCc1ccccc1)Nc1cccn(Cc2c(F)cccc2Cl)c1=O | inconclusive [activator, single point]
15 | CSc1nc(N)nc2c1ncn2CC(=O)NCCCN1CCCC1=O | inconclusive [activator, partial curve, poor fit]
16 | CN(c1ccccc1)S(=O)(=O)c1cccc(C(=O)NCc2ccccc2)c1 | inactive
17 | CCn1ncc(CN2CCCC(C(=O)c3cccc(OC(C)C)c3)C2)c1C (stereo unspecified) | active: 23.1 µM
18 | Oc1cc(-n2cccn2)c(O)cc1-n1cccn1 | inactive
19 | O=C(c1ccc(Cl)cc1)c1cnc2ccccn12 | inconclusive [activator, partial curve, poor fit]
20 | Cc1ccc(Cn2c(=O)c3cccnc3n(CC(=O)Nc3cccc(C(F)(F)F)c3)c2=O)cc1 | inconclusive [activator, partial curve, poor fit]
21 | Cc1cc(C(=O)CCC(=O)NNC(=O)c2ccccc2O)c(C)s1 | inconclusive [activator, partial curve, poor fit]
22 | CCCN1CCN(C(=O)c2ccc(CS(=O)c3ccc(Cl)cc3)o2)CC1 (stereo unspecified) | inactive
23 | C=C[C@H](CC(C)C)N(Cc1ccccc1)S(=O)(=O)N(Cc1ccccc1)[C@@H](C=C)CC(C)C | active: 9.2 µM

Row | Structure (SMILES) | Potency
24 | O=C(c1ccc(Cl)cc1)c1cccc(O)c1 | inactive
25 | COc1cc2c(OC(C)=O)c3c(c(-c4ccc5c(c4)OCO5)c2cc1OC)C(=O)OC3 | inconclusive [activator, single point]
26 | C=CCn1c(N)c(C(=O)OCCC)c2nc3ccccc3nc21 | inactive
27 | Cc1ccccc1OCc1nnc(SCC(=O)Nc2ccc3nc(SCC(=O)NC(C)(C)C)sc3c2)n1C | inconclusive [activator, partial curve]
28 | CC1(c2ccc(Cl)cc2Cl)NC(=O)N(CC(=O)N2CCN(C(=O)c3ccco3)CC2)C1=O (stereo unspecified) | inactive
29 | CC(=O)c1nn(-c2ccc(Cl)cc2)cc1C(=O)c1ccc(C)cc1 | inconclusive [activator, partial curve, poor fit]
30 | O=C(CN(C(=O)c1csnn1)c1cccc(C(F)(F)F)c1)NCc1ccc(F)cc1 | inconclusive [activator, partial curve]
31 | CCOc1cc(/C=C/C(=O)c2ccc(O)cc2)ccc1OCC(=O)N(C)C | inconclusive [activator, single point]
32 | CCn1c(COc2ccccc2C)nnc1SCC(=O)Nc1ccc2c(c1)OCCO2 | inconclusive [activator, partial curve, poor fit]
33 | Cc1cc(C)nc(NC2=NCC(=O)N2c2ccccc2)n1 | inactive
34 | CCOc1ccc(NC(=O)c2cc3n(n2)C(C(F)(F)F)CC(c2ccco2)N3)cc1 (stereo unspecified) | inconclusive [activator, partial curve, poor fit]
35 | Cc1ccc(C(=O)N2CCC(C)CC2)cc1C | inactive
36 | COc1ccc(CN(C)C(=O)c2ccc(NS(=O)(=O)c3ccc(C)c([N+](=O)[O-])c3)cc2)c(OC)c1OC | inactive
37 | Cc1nc(SCc2ccc(Cl)c(Cl)c2)ncc1C(=O)O | inconclusive [activator, single point]
38 | COc1ccc(/C=C/c2ccccc2)cc1[C@H]1[C@@H]2C=CCC[C@@]2(C)C(=O)N1Cc1ccccc1 | inconclusive [activator, partial curve, poor fit]
39 | O=S(=O)(c1ccc(NC(=S)N2CCN(c3ccc(O)cc3)CC2)cc1)N1CCOCC1 | inconclusive [activator, partial curve, poor fit]
40 | O=[N+]([O-])c1c(NCCCO)cc(N2CCCCCC2)c2nonc12 | inactive
41 | O=C(CN1CCC(n2nnc3cc(F)ccc32)CC1)N1CCc2ccccc2C1 | active: 5.17 µM
42 | O=C(Nc1cccc2c1CCCC2)c1ccccc1Br | inactive
43 | O=C(Nc1ccn(Cc2cccc3ccccc23)n1)c1cccnc1 | inconclusive [activator, partial curve, poor fit]
44 | COC(=O)c1ccc(N2CCN(C(C)=O)CC2)c(NC(=O)COc2ccccc2C)c1 | inactive
45 | COc1c(C)cc(C(=O)C2CCCN(Cc3cccc4nccnc34)C2)cc1C (stereo unspecified) | inactive
46 | Cc1cccc(N2C(=O)N3[C@H](c4ccc(Cl)cc4)[C@@H]4C(=O)N(C5CCCCC5)C(=O)[C@@H]4[C@]3(Cc3ccc(Cl)cc3)C2=O)c1 | inconclusive [activator, full curve, poor fit]
